Experimental data as given in the supplement of paper PMC11417369.
The list shows a part of the results.

System: PfHDP1 homeodomain (GST-tagged)
Experiment: gcPBM binding intensity (ln(normalized median fluorescence intensity)); higher = stronger DNA binding
Procedure, shortened: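 Plasmodium falciparum DNA-binding domains carrying a GST tag were expressed in E. coli and applied for 1 h, at about 25 μg on average, to an Agilent 4 × 180k array. The array held primer-extended double-stranded 36-bp intergenic genomic probes together with negative controls, and binding took place in 1× PBS with 1% milk, 0.2 mg/ml BSA, 0.5% salmon testes DNA and 0.03% Triton X-100. An Alexa488 anti-GST antibody detected bound protein, and the array was scanned at 488 nm. Binding intensity is taken as the highest Masliner-normalised natural-log median intensity across replicate spots of either probe orientation.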

| Sequence | gcPBM binding intensity (ln) |
| --- | --- |
| AATATATATATATATCCACACACATACATATATTAA [CACACA_site7907] | 6.69 |
| TACATAAAAATATATGCATGTTCTTATTTAATAAAA [TGCATGCA_site743] | 6.21 |
| ATGGTTTTTATTTTATGTACTTACTAAAATGAATAA [XGTACX_site4317] | 6.4 |
| ATGTTTAAATTTTTCAGTACATATATTCTAGTAAAA [XGTACX_site1010] | 6.3 |
| GAATATGTTAACATTTGTACATAAAATTTTTTACAA [XGTACX_site2444] | 6.51 |
| GATATATTACTTAAAATACACACCATGGAAAAGTTT [CACACA_site2606] | 6.52 |
| CATATAAAAGGACACACACACACATATATATATATA [CACACA_site4674] | 9.09 |
| TATTTTATTTTTTGTTGTACATATATATTATATATA [XGTACX_site4513] | 6.89 |
| ATATGTAAAATATGGTGTACAATCAAATAAAAAAAA [XGTACX_site6270] | 6.73 |
| ATTAATATATTTACCACACACCCATTTCGATTTTAT [CACACA_site3605] | 6.89 |
| ATATATATATATAGTAGTACTCTCTCTGTATATATA [XGTACX_site3754] | 9.1 |
| ATTTAGAAAAATAAAACACACATATATCTGTAAATA [CACACA_site6119] | 6.53 |
| TATACATAAAAAAATTTTACCAGGTTAATACAAATA [CACACA_negctrl_site1171] | 6.65 |
| TTCCTTTGTTGTCGTTGTACTTATATGGTTATAATT [XGTACX_site3082] | 7.51 |
| TACCTTATGTTATATACACACATATAACATAATATA [CACACA_site6741] | 6.76 |
| ACTATATTTCATAACAGTACATATTCCTGAAACATC [XGTACX_site4924] | 6.43 |
| CATGCTTATATGTGCACACACAAAAGAAAAGAAAAA [CACACA_site1655] | 11 |
| ACAATATAAAAAAATTGTACATAATATATAATATTA [XGTACX_site1040] | 6.35 |
| AAAAAAATCTCCAGTGTGCACAATCACATAATATAT [GTGCAC_site9833] | 10.8 |

| Sequence | gcPBM binding intensity (ln) |
| --- | --- |
| GAGATAAAATAAAACACACACATATATATATAGAAT [CACACA_site2197] | 7.03 |
| TATAAGCTAAGTTGTTGTACAAAAAGGAAAAGTATA [XGTACX_site3741] | 7.5 |
| TGTTACATAAAATGCACACTTTCAAATATGCTAATA [CACACA_site2925] | 9.73 |
| AAATATAAATATACTCGTACATATATATATATATAT [XGTACX_site6940] | 9.34 |
| TTTTCTTTTAAGTTTGTTTTACACTTTTTATTTTGA [CACACA_negctrl_site1581] | 6.43 |
| TATACGTATTTTATATGTACACATATACATATTTAT [XGTACX_site5301] | 6.58 |
| AATATATGGTTTCATGATATTAAATTCAATTTAATG [GTGCAC_negctrl_site370] | 6.05 |
| CTATTATAATATTTTACACACCATGTAAAATATATA [CACACA_site3206] | 6.54 |
| CTATTTTGGATGTGTACACATATATATATTTATATT [CACACA_site5706] | 7.58 |
| ATCATTCTTCATTTGTCACACATGATAAAAATATAT [CACACA_site4953] | 6.72 |
| CATTAACATTTTATTACACACAATAATTTATAAGTA [CACACA_site4083] | 6.64 |
| TTTTTTAAGTAATGAAATGATTTTCTTATAGAATAA [GTGCAC_negctrl_site395] | 5.73 |
| GCTTTTGTCATGTGCACACACGTATATATTATATAT [CACACA_site6146] | 11.5 |
| ATTTATATTTGTATTTGTACTTATATTTATATTTAT [XGTACX_site1540] | 6.28 |
| AAAAAGGTTAAGGTAGTGCATAATAAAGAATATTAA | 8.58 |
| TTAAATAGATAAACTAAACACACAAAAAAAAAAAAA [CACACA_site8308] | 6.23 |
| GCTAAAAGTATATGCACACACATATATATGCACATA [CACACA_site1635] | 11 |
| TTTTGTACTTCATGCGTGCACAGAAATATATTATAT | 9.51 |
| GAATAAGATAGATATACACACCATTATAAATATAAA [CACACA_site5392] | 6.38 |

| Sequence | gcPBM binding intensity (ln) |
| --- | --- |
| TAAATACTAATATGTACACACATATAGATATAGATT [CACACA_site7247] | 6.1 |
| TGTGCAAGATTTTTCTGTACATATATATAAATATAT [XGTACX_site1796] | 6.63 |
| AAATATTCTTGTTTAATACACACTGTAGTATTATAT [CACACA_site433] | 6.77 |
| ATTTATTTATATAATACACACAAATATCTTAATTAA [CACACA_site3993] | 6.41 |
| TGGATATAAAACAACGTGCACTTGGTTGATTTTAAA [GTGCAC_site9900] | 8.31 |
| TATGGTAAATACAACACACACACATATGTATTTATA [CACACA_site4666] | 6.99 |
| TTTTTTTTTTTTTTTTTTGGTGAGAGAAGAAAATTC [CACACA_negctrl_site950] | 6.1 |
| TAGGCCTTAAATCGTGTGCACTTTTTTTTTTTTTTT | 8.22 |
| TATGTGCCAAAACACACACACATATATATATATATA [CACACA_site469] | 9.33 |
| CAAATTATTATTTAAGCACACATGTTTATTTTTTTT [CACACA_site2672] | 6.41 |
| AAATATATCAATATATATATATATATATATATATAT [XGTACX_negctrl_site544] | 9.66 |
| AAGCATACATCAAGCACACACACACCCACACCCACA [CACACA_site372] | 6.67 |
| TTTTGTACAAAAATAATGCACACTATATCAAGTTTT [CACACA_site3595] | 10.4 |
| ATATAAAAAGGAAAAAGTACAAAAAAATGTTTGTGA [XGTACX_site8552] | 6.32 |
| AAGAAAATATATTCACATGAAGAATTAAAATAAAAC [TGCATGCA_negctrl_site119] | 6.66 |
| TAATAATTATTGCACGCACACAAAAACCTATAGATT [CACACA_site2931] | 10.6 |
| ATTTATAAAACAGGCACACATATAATAAATTTTATA [CACACA_site2600] | 6.64 |
| ACTATAAATATTTATAAACACACAAATATATATATT [CACACA_site7891] | 6.73 |
| ATTTTTTTTTTTACAGTGGAACCATATTTGCTCATT [CACACA_negctrl_site940] | 7.34 |
